# Measurements: the RNAGym collection of RNA variant scans (doi:10.1093/nar/gkz1192)
# The source gives no read counts; variants with many changes may rest on few reads.
# B1: CPEB3 Ribozyme (parent)
# chain: UAACAGGGGGCCACAGCAGAAGCGUUCACGUCGCAGCCCCUGUCAGAUUCUGGUGAAUCUGCGAAUUCUGCUGUAUAUCUC
# Variants of: B1
# Assay: self-cleavage, relative activity (ratio to wild type); higher = more cleavage; in vitro, sequencing
# Procedure, shortened: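 CPEB3 self-cleaving ribozyme mutant libraries were made by rounds of error-prone PCR, barcoded, and transcribed in vitro with T7 RNA polymerase for 5 hours at 37°C. Cleavage occurred during transcription and a 15 min DNase I step before EDTA stop. RNAs were reverse transcribed with template switching and Illumina-sequenced, with DNA sequencing mapping barcodes to variants. Relative activity is the variant's cleaved/total read fraction divided by wild type's (minimum 5 reads), averaged across three batches.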
row,Variant,self-cleavage
1,UAACAUGGGGCCACAGUAGGAGCGCUCACGUCGCAGCCCCUGUCAGGUUCUGGUGAAUCUGCGAAUUCUGCUGCAUAUCUC [G6U C17U A20G U25C A47G U74C],0.04
2,UAACAUGGGGCCACAGCAGAAGUGUUCACGUCGCAGCCCCUGUCAGAUUCUGGUGAAUCUGCGGAUUCUGCUGUAUAUCUC [G6U C23U A64G],0.22
3,UAACAUGGGGCCACAGCAGAAGCGUUUACGUCGCGGCCCCUGCCAGAUUCUGGUGAAUCUGCGAAUUCUGCUGUAUUUCUC [G6U C27U A35G U43C A77U],0.08
4,UAACAUGGGGCCACAGCAGAAGCGUUCAUGUCGCUGCCCCUGUCAGAUUCUGGUGAAUCUGCGAAUUCUGCUGUAUAUCUC [G6U C29U A35U],0.11
5,UAACAUGGGGCCACAGCAGAAGCGUUCACGUCGUAGCCCCUGUCAGAUUCUCGUGAAUCUGCGAAAUCUGCGGUAUAUCUC [G6U C34U G52C U66A U72G],0.05
6,UAACAUGGGGCCACAGCAGAAGCGUUCACGUCGCAGCCCUUGUCAGAUUCUGGUGAAUCUGCGAACUCUGCUGCAUAUCUC [G6U C40U U66C U74C],0.35
7,UAACAUGGGGCCACAGCAGAAGCGUUCACGUCGCAGCCCCUGUCAGAUUUUGGUGAAUCUGCGUAUUCUGCUGUAUAUCUC [G6U C50U A64U],0.38
8,UAACAUGGGGCCACAGCAGAAGCGUUCACGUCGCAGCCCCUGUCAGAUUCUGGUGAAUCUGCGAAUUAUGCCGUAUAUCUC [G6U C68A U72C],0.21
9,UAACAUAGGGCCACAGCAGAAGCGUUCACGUCGCAGCCCCAGUCAGAUUCUGGUGGGUCUGCGGAUUCUGCUGUAUACCUC [G6U G7A U41A A56G A57G A64G U78C],0.06
10,UAACAUGGAGCCGCAGCAGAAGCGUUCACGUCGCAGCCCCUGUCAGAAUCUGGUGAAUCUGCGAAUCCUGCUGUAUAUCUC [G6U G9A A13G U48A U67C],0.08
11,UAACAUGGAGCCACAGCAGAAGCGUUCACGUCGCAGCCCCUGUCAGAUUCUGGUGAAUCUGCGUAUUCAGCUGCAUAACUC [G6U G9A A64U U69A U74C U78A],0.05
12,UAACAUGGCGCCACAGCAGAAGCGUUCACGUCGCAGCCCCUGUCAGAUUCUGGUGAAUCUGCGGACUCUGCUGUAUAUCUC [G6U G9C A64G U66C],0.06
13,UAACAUGGCGCCACAGCAGAAGCGUUCACGUCGCAGCCCCUGUCAGAUUCUGGUGAACCUGCGAAUUCUGCUGUAUAACUC [G6U G9C U58C U78A],0.07
14,UAACAUGGGGCCACAACAGAAGCGUUCACGUCGCAGCCCCUGUCAGAUUCUGGUGAAUCUGCGAGUUCUGCUGUAUAUCUC [G6U G16A A65G],0.25
15,UAACAUGGGGCCACAACAGAAGCGCUCUCGUCGCAGCCCCUGUCAGUUUCUGGUGAGUCUGCGGAUUCUGCUGUAUAUCUC [G6U G16A U25C A28U A47U A57G A64G],0.04
16,UAACAUGGGGCCACAUCAGAAGCGUUCAUGUCACAGCCCCUGUCAGAUUUUGGUGAAUCUGCGAAAUCUGCUGUAUAUCUC [G6U G16U C29U G33A C50U U66A],0.04
17,UAACAUGGGGCCACAGCAAAGGCGUUCUCGUCGCAGCCCCAGUCAGAUUCUGGUUAAUCUGCGAAUUCUGCUGUGUAUCUC [G6U G19A A21G A28U U41A G55U A75G],0.03

row,Variant,self-cleavage
1,UAACAUGGGGCCACAGCAAAAGCGUUCACGACGCAGCCCCUGUCGGAUUCUGGUGAAUCUGCGAAUUCCGCUGUAUAUCUC [G6U G19A U31A A45G U69C],0.05
2,UAACAUGGGGCCACAGCAGAAGCUUUCGCGUCGCAGCCCCUGUCAGAUUCUGGUGAAUCUGCGAAUUCUGCUGUAUAUCUC [G6U G24U A28G],0.24
3,UAACAUGGGGCCACAGCAGAAGCGUUCACGUCCCAGCCCCUGUCAGAUUCUGGUGAAUCUGCGGGUUCUGCUGUAUAUCUC [G6U G33C A64G A65G],0.11
4,UAACAUGGGGCCACAGCAGAAGCGUUCACGUCUCAGCCCCCGUCAGAUUCUGGUGAAUCUGCGAAAACUGCUGUAUAUCUC [G6U G33U U41C U66A U67A],0.07
5,UAACAUGGGGCCACAGCAGAAGCGUUCACGUCGCAGCCCCUGUCAAAUUCUGGUGGAUCUGCGAAUUCUGCUGUAUAUCUC [G6U G46A A56G],0.07
6,UAACAUGGGGCCACAGCAGAAGCGCUCACGUCGCAGCCCCUGUCAGAUUCUGGUGAAUCUGCGAAUUCUGCUGUAUGUCCC [G6U U25C A77G U80C],0.06
7,UAACAUGGGGCCACAGCAGAAGCGCUCACGUCGCAGCCCCUGCCAGAUUCUGGUGAAACUGCGAAUACUGCUGUAUAUCUC [G6U U25C U43C U58A U67A],0.24
8,UAACAUGGGGCCACAGCAGAAGCGCUCACGUCGCAGCCCCUGUCAGAUUCUGGAGAAUCUGCGAAUCCUGCUGUAUAUCUC [G6U U25C U54A U67C],0.12
9,UAACAUGGGGCCACAGCAGAAGCGCUCACGUCGCAGCCCCUGUCAGAUUCUGGUGAAUCUGCGAAUACUGCUGUAUAUCUC [G6U U25C U67A],0.09
10,UAACAUGGGGCCACAGCAGAAGCGUCCACGUCGCAGCCCCUGUCAGAUUCUGGUGAAUCUGCGAAUUCUGCUGUAUACCUC [G6U U26C U78C],0.1
11,UAACAUGGGGCCACAGCAGAAGCGUUCACGACGCAGCCCCUGACAGAUUCUGGUGAAUCCGCGAAUUCUGCUGUAUAUCUC [G6U U31A U43A U60C],0.15
12,UAACAUGGGGCCACAGCAGAAGCGUUCACGACGCAGCCCCUGUCAGAAUCUGGUGAAUCUGCGAAUUCUGCUGUAUAUCUC [G6U U31A U48A],0.04
13,UAACAUGGGGCCACAGCAGAAGCGUUCACGCCGCAGCCCCUGUCAGAUUCUGGUGAAUCUGCUAAUUCUGCUGUAUAUCUC [G6U U31C G63U],0.29
14,UAACAUGGGGCCACAGCAGAAGCGUUCACGCCGCAGCCCCUGCCAGAUUCUGGUGAAUCCGUGAAUUCUGCUGUAUAUCUC [G6U U31C U43C U60C C62U],0.05
15,UAACAUGGGGCCACAGCAGAAGCGUUCACGCCGCAGCCCCUGUCAGAUUCUGGCGAAUCUGCGAAUUCGGCUGUAUAUCUC [G6U U31C U54C U69G],0.17
16,UAACAUGGGGCCACAGCAGAAGCGUUCACGUCGCAGCCCCUGUCAGACUCUGGUGGACCUGCGAAUUCUGCUGUAUAUCUC [G6U U48C A56G U58C],0.21
17,UAACAUGGGGCCACAGCAGAAGCGUUCACGUCGCAGCCCCUGUCAGAUCCUGGUGAAUCUGCGAAUUCUGCUGUAUACCUC [G6U U49C U78C],0.29
